In PubChem BioAssay AID602310 (National Center for Advancing Translational Sciences (NCATS), 2012):
The campaign covered roughly 410,000 compounds. About 310 (0.076%) were called active. This list was built around the results that the source calls inconclusive (neither active nor inactive); the mix of calls is not that of the screen. Calls come from the whole dose curve; as a rule, active = well fitted curve in the direction sought with a large enough effect; inconclusive = small, poorly fitted or top-dose-only effect; inactive = flat fitted curve, though single readings scatter. Potencies of inconclusive entries are doubtful fits and often do not repeat.
Note: nearly all actives have a fitted effect of over 60% in size.
Potency is the fitted concentration of half-maximal effect; tags give direction and shape of the fitted curve.

The compounds below were run against DNA dC->dU-editing enzyme APOBEC-3G (Homo sapiens) (UniProt Q9HC16) (assay: qHTS for Inhibitors of Vif-A3G Interactions: qHTS). Details: HeLa A3G-eYFP + Vif (tagged APOBEC3G with the HIV-1 protein that degrades it), YFP fluorescence, overnight; series mostly up to 46.1 µM.
Chain of UniProt Q9HC16 (Q9HC16 whole entry, looked up): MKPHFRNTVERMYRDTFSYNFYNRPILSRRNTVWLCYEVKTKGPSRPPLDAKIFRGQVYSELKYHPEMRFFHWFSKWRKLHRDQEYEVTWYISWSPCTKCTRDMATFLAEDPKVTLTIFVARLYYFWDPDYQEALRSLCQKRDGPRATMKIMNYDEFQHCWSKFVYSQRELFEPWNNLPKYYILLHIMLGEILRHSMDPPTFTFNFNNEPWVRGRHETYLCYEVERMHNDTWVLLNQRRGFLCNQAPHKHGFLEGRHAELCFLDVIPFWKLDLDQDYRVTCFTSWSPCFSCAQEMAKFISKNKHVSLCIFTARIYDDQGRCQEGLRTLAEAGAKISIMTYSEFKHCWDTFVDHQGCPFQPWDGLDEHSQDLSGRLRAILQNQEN
How it was run: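 HeLa cells stably expressing Vif and C-terminally eYFP-tagged A3G, seeded overnight at 37 deg C, then exposed to compound by pintool overnight at 37 deg C. Rise in yellow fluorescence (Ex 488/Em 500-530, Acumen) marks blocked Vif-driven A3G degradation.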
`CC(=O)Nc1ccc2c(c1)Cc1cc(N3C(=O)C=CC3=O)ccc1-2` was tested, and the Potency was “inactive”.
For `Cc1ccc(C(=O)Cn2c(C(=O)OCCO)cc3ccccc32)cc1`, the Potency was inconclusive: 6.31 µM [inhibitor, partial curve, poor fit].
With `Cc1cc(C)c2nccc(/C=C/c3ccc(N(C)C)cc3)c2c1` the Potency was active: 10 µM.
In the case of `O=C(COCc1cc(-c2cccs2)on1)NC1CCCCC1`, the Potency was “inactive”.
`CCOC(=O)N1CCC(NC(=O)c2ccc3c(c2)N=C(CC)c2cc(C)ccc2S3)CC1` was tested, and the Potency was inconclusive: 5.62 µM [inhibitor, single point].
For `COc1ccc(/C=C2\CN(Cc3ccccc3)C/C(=C\c3ccc(OC)cc3)C2=O)cc1`, the Potency was inconclusive: 17.8 µM [inhibitor, partial curve, poor fit].
With `CCN(CC)c1ccc(/C=C2\CCC(/C=N/NC(=O)c3ccc(=O)n(C)c3)=C2N2CCOCC2)cc1` the Potency was inconclusive: 3.16 µM [inhibitor, single point].
In the case of `CC(=O)N1CCCc2cc(S(=O)(=O)N3CCN(c4ccccc4F)CC3)ccc21`, the Potency was “inactive”.
With `Cn1cc(C(=O)N/N=C/C(Br)=C/c2ccccc2)ccc1=O` the Potency was inconclusive: 10 µM [inhibitor, partial curve].
In the case of `COc1cc(/C=C(\C#N)c2nc3ccccc3[nH]2)ccc1OCc1ccccc1F`, the Potency was inconclusive: 8.91 µM [inhibitor, partial curve].
In the case of `C=CCNC(=O)/C(C#N)=C/c1cc(Br)ccc1OC`, the Potency was inconclusive: 22.4 µM [inhibitor, single point].
`N#CC1=C(N)Oc2cc(N)ccc2C1C1CC=CCC1` (stereo not drawn) was tested, and the Potency was inconclusive: 8.91 µM [inhibitor, partial curve].
With `C=C(C(=O)c1ccccc1)C(C)C(=C)C(=O)c1ccccc1` the Potency was active: 5.01 µM.
In the case of `COc1ccc(NS(=O)(=O)c2cc(NC(=O)[C@@H](NC(N)=O)C(C)C)ccc2C)cc1`, the Potency was inconclusive: 35.5 µM [inhibitor, single point].
For `CC(C)c1ccc(NC(=O)C2CCN(C(=O)[C@@H]3Cc4ccccc4CN3)CC2)cc1`, the Potency was “inactive”.
In the case of `CCCCn1c(N)c(N(CC(C)C)C(=O)c2cc(-c3ccc(OC)cc3)nc3ccccc23)c(=O)[nH]c1=O`, the Potency was inconclusive: 22.4 µM [inhibitor, single point].
In the case of `COc1ccc(N=Cc2sc(O)c3ccccc23)cc1`, the Potency was active: 12.6 µM.
`CS(=O)(=O)c1ccc(C(=O)OCC(=O)NC(=O)C2CCCCC2)cc1[N+](=O)[O-]` was tested, and the Potency was inconclusive: 22.4 µM [inhibitor, single point].
With `CCc1cc(C(=O)N=Nc2c(O)[nH]c3ccc([N+](=O)[O-])cc23)c2ccccc2n1` the Potency was inconclusive: 35.5 µM [inhibitor, partial curve, poor fit].
For `COc1ccc(C(=O)NCCn2cc(SCc3c(F)cccc3Cl)c3ccccc32)cc1`, the Potency was “inactive”.
`Cc1ccc(NNC(=O)c2ccno2)cc1C` was tested, and the Potency was “inactive”.
`COc1ccc(-c2cc(C(F)(F)F)nc(SCCC(=O)Nc3ccc(OC)c(OC)c3)n2)cc1` was tested, and the Potency was “inactive”.
For `CCc1nn(CCCC(=O)NCc2ccc(OC(C)C)cc2)c(=O)c2cc3occc3n12`, the Potency was inconclusive: 3.55 µM [inhibitor, full curve, poor fit].
In the case of `Cc1ccc(NC(=S)NNC(=O)c2ccccc2OC(F)F)cc1`, the Potency was inconclusive: 22.4 µM [inhibitor, partial curve, poor fit].
`COc1ccc(OC)c(S(=O)(=O)n2cnc3ccccc32)c1` was tested, and the Potency was inconclusive: 4.47 µM [inhibitor, partial curve].
In the case of `CCOc1ccccc1CNC(=O)C1CCCN(c2nnc(C)c3c(C)n(-c4ccccc4)nc23)C1` (stereo not drawn), the Potency was inconclusive: 35.5 µM [inhibitor, single point].
With `CN=C1SC(CC(=O)Nc2ccc(F)cc2F)C(=O)N1/N=C/c1ccc(OC(F)F)c(OC)c1` (stereo not drawn) the Potency was “inactive”.
With `Cc1c(C(=O)N2CCC(C)CC2)c(S(=O)(=O)N(Cc2ccccc2)C(C)(C)C)c(C)n1C` the Potency was “inactive”.
In the case of `CC1(C(=O)NCc2ccccc2)Cc2c(-c3cccc(C(N)=O)c3)ccnc2O1` (stereo not drawn), the Potency was inconclusive: 2.82 µM [inhibitor, full curve].
With `COc1cc2cnc(-c3ccccc3)c(-c3cc(OC)c(OC)c(OC)c3)c2cc1OC` the Potency was inconclusive: 10 µM [inhibitor, partial curve].
With `COc1cc2c(cc1OC)C(C)N(C(=O)c1cc(Cl)nc(Cl)c1)CC2` (stereo not drawn) the Potency was inconclusive: 3.16 µM [inhibitor, full curve, poor fit].
`CCCS(=O)(=O)N1CC(=O)N(c2cccc(F)c2)C(C)(C(=O)NC2CCCCCC2)C1` (stereo not drawn) was tested, and the Potency was “inactive”.
`CCS(=O)(=O)Nc1ccc(C2=NN(C(=O)c3ccco3)C(c3ccco3)C2)cc1` (stereo not drawn) was tested, and the Potency was inconclusive: 5.62 µM [inhibitor, partial curve, poor fit].
`COc1ccc(OC)c(NC(=O)CS(=O)(=O)c2ccccc2)c1` was tested, and the Potency was “inactive”.
For `O=S(=O)(N=C(NS(=O)(=O)c1ccc(Cl)cc1)c1ccccc1)c1ccc(Cl)cc1`, the Potency was “inactive”.
For `C/C(=C1/C=Nc2ccccc21)c1ccc(N(C)C)cc1`, the Potency was “inactive”.
With `O=C(N/N=C/c1ccc(Cl)cc1)c1cc2c(s1)-c1ccccc1CC2` the Potency was inconclusive: 5.01 µM [inhibitor, full curve, poor fit].
With `O=C(c1cc(-c2ccco2)nn1-c1cccc(Cl)c1)N1CCCCC1` the Potency was inconclusive: 35.5 µM [inhibitor, single point].
In the case of `Cc1ccc(S(=O)(=O)NCCC(=O)Nc2nnc(C)s2)cc1`, the Potency was inconclusive: 3.16 µM [inhibitor, single point].
In the case of `CCN1/C(=C/c2cc[n+](C)cc2)C=Cc2cc(C)ccc21`, the Potency was inconclusive: 7.94 µM [inhibitor, partial curve, poor fit].
With `Cc1ccc(NC(=O)CSc2nnc3nc(C)cc(C)n23)cc1` the Potency was “inactive”.
For `Cc1csc(SCC(=O)Nc2sc3c(c2C#N)CCC3)n1`, the Potency was inconclusive: 11.2 µM [inhibitor, single point].
For `Cc1ccc2c(c1)C(=O)C(=O)N2Cc1ccc(F)cc1`, the Potency was inconclusive: 28.2 µM [inhibitor, single point].
With `COc1cccc(Sc2ccccc2/C=N/NC(N)=O)c1` the Potency was inconclusive: 1.41 µM [inhibitor, full curve, poor fit].
For `CSc1ccc(NC(=O)C(C)N2CCN(C)CC2)cc1` (stereo not drawn), the Potency was “inactive”.
For `O=C(Nc1ccccc1)C1=C[C@H](c2ccccc2)C[C@H](OCc2ccc(CO)cc2)O1`, the Potency was “inactive”.
With `CC(=O)Nc1cccc(-c2ccnc3c2CC(C)(C(=O)NCCC(F)(F)F)O3)c1` (stereo not drawn) the Potency was inconclusive: 2.51 µM [inhibitor, full curve, poor fit].
For `CN(C)C(=O)c1cccc(-c2cc(NC=O)c3ncc(-c4ccc(F)cc4)n3c2)c1`, the Potency was inconclusive: 12.6 µM [inhibitor, partial curve, poor fit].
For `CCOC(=O)N1CCN(Cc2nc3cc(NC(C)=O)ccc3n2C(C)C)CC1`, the Potency was inconclusive: 10 µM [inhibitor, partial curve, poor fit].
In the case of `Cc1cccc2cc3c(N)c(C(=O)Nc4ccc(N5CCOCC5)cc4)sc3nc12`, the Potency was active: 12.6 µM.
In the case of `O=C(Oc1ccccc1)c1cc(O)c(O)c(O)c1`, the Potency was inconclusive: 22.4 µM [inhibitor, partial curve, poor fit].
In the case of `CC(C)(C)C(=O)NC(=S)NNC(=O)c1sc2ccccc2c1Cl`, the Potency was “inactive”.
With `Cc1ccc(C)c(C(=O)Cn2ncc(Cl)c(Cl)c2=O)c1` the Potency was inconclusive: 22.4 µM [inhibitor, single point].
For `CCn1c(CNc2ccc(Cl)cc2)nnc1SCc1ccccc1`, the Potency was “inactive”.
With `CNC(=O)/C(C#N)=C1\SC(Cc2ccc(F)cc2)C(=O)N1c1ccccc1C` (stereo not drawn) the Potency was “inactive”.
With `O=C(Nc1ccc(C(F)(F)F)cc1)c1cc(S(=O)(=O)NC2CCCCC2)ccc1F` the Potency was inconclusive: 35.5 µM [inhibitor, single point].
In the case of `O=[N+]([O-])/C=C/c1cc2ccccc2[nH]1`, the Potency was inconclusive: 15.8 µM [inhibitor, single point].
For `COc1cccc(C2CC(=O)Nc3cc(OC)c(OC)cc32)c1` (stereo not drawn), the Potency was “inactive”.
For `O=S(=O)(NCc1ccccc1)c1ccc(Cl)cc1`, the Potency was “inactive”.
With `CCCCNC(=O)c1onc(CCl)c1C(=O)OC` the Potency was inconclusive: 31.6 µM [inhibitor, single point].
With `CCN(CC)C(=O)Cn1cc(C(=O)C(=O)Nc2ccc3c(c2)OCCO3)c2ccccc21` the Potency was inconclusive: 10 µM [inhibitor, partial curve, poor fit].
In the case of `CC12CC3(C)CC(C)(C1)CC(C(=O)NC(=S)N1CCOCC1)(C2)C3`, the Potency was inconclusive: 31.6 µM [inhibitor, single point].
For `CC(=O)Nc1ccc(NC(=O)C(C)OC(=O)/C=C/c2cn(-c3ccccc3)nc2-c2cccnc2)cc1` (stereo not drawn), the Potency was inconclusive: 12.6 µM [inhibitor, partial curve, poor fit].
For `O=C(Cn1c(=O)c2ccccc2n(CC(=O)Nc2ccc(Cl)cc2)c1=O)NCCc1ccccc1`, the Potency was inconclusive: 8.91 µM [inhibitor, partial curve].
In the case of `Cc1ccc2c(CC(=O)NCc3ccccc3)coc2c1C`, the Potency was inconclusive: 10 µM [inhibitor, partial curve].
`CC(=O)Nc1cccc(-c2ccnc3c2CC(C)(C(=O)Nc2ccc4c(c2)OCO4)O3)c1` (stereo not drawn) was tested, and the Potency was inconclusive: 0.891 µM [inhibitor, full curve, poor fit].
With `COc1ccc(C)cc1S(=O)(=O)N(C)CC(=O)N1CCCCC1` the Potency was “inactive”.
With `Oc1c(C(c2ccccn2)N2CCC(Cc3ccccc3)CC2)cc(Cl)c2cccnc12` (stereo not drawn) the Potency was inconclusive: 12.6 µM [inhibitor, single point].
